# Reference: article PMC4336329 (PLoS ONE, 2015)
# Hit rate of the full screen: of about 310,000 compounds, about 14,000 (4.5%) showed an effect of 50% or more. The effect is printed as a negative number. This is one part of the list.
# Target: human ether-à-go-go-related gene (hERG) potassium channel (human, UniProt Q12809)
# Experiment: primary screen, population patch clamp on CHO cells stably expressing hERG
# 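Note: peak tail current of the secondary pulse compared with the same well before compound.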
# Chain of human ether-à-go-go-related gene (hERG) potassium channel (Q12809 whole entry, looked up): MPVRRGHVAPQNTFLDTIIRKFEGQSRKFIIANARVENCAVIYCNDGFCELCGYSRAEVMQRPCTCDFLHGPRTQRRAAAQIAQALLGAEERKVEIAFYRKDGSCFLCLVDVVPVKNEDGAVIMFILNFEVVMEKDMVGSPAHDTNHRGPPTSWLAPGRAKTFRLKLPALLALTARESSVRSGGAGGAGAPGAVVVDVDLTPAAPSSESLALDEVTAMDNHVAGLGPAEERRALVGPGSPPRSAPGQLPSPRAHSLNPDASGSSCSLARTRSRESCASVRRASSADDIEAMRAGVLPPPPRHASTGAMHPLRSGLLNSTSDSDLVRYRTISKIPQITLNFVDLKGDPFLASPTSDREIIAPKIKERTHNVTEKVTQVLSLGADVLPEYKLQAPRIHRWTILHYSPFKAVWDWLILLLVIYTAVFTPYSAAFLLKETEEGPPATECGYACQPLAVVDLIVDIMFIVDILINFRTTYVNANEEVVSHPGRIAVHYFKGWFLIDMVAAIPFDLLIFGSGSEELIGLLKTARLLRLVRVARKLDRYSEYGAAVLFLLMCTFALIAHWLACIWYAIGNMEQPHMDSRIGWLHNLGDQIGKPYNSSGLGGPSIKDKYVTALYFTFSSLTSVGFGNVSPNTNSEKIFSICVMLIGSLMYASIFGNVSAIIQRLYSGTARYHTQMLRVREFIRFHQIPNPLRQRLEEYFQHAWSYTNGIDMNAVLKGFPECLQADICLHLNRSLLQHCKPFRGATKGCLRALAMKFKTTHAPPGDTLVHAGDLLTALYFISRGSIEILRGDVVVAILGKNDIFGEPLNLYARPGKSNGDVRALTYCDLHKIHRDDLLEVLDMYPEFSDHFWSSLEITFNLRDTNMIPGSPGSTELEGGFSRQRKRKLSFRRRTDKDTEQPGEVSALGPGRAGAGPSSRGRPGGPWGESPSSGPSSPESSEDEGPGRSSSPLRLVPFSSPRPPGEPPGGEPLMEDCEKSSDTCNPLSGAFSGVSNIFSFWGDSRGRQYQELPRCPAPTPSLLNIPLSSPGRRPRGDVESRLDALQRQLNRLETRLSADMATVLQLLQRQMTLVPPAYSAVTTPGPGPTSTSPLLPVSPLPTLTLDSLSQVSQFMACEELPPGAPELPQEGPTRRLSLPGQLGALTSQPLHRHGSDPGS
row,Structure (SMILES),"hERG current change (%, negative = inhibition) at 10uM"
1,O=C(N/N=C/c1cccc(Cl)c1)C(c1ccncc1)N1CCOCC1 (stereo not drawn),11.8%
2,CC(C)(C)c1csc(NC(=O)CSc2nc3ccccc3c(=O)[nH]2)n1,-1.86%
3,CCOc1ccc(N2C(=O)C3Sc4[nH]c(=O)sc4C(c4ccc(OC)c(OC)c4)C3C2=O)cc1 (stereo not drawn),-1.7%
4,COc1ccc(Cl)cc1S(=O)(=O)n1ccnc1C(C)C,1.33%
5,Cc1cc(C(=O)Nc2nc3c(s2)CCCC3)no1,-16.8%
6,Cc1ccc(S(=O)(=O)NCC(=O)N(CC(=O)NCC2CCCO2)Cc2ccco2)cc1 (stereo not drawn),0.269%
7,COc1ccc(C2CC(=O)C(C(c3ccc(O)cc3)C3C(=O)CC(c4ccc(OC)cc4)CC3=O)C(=O)C2)cc1 (stereo not drawn),-3.5%
8,O=C(c1cccc(-c2ccc(O)cc2)c1)N1CCOCC1,-3.36%
9,COc1ccc(Cl)cc1C(=O)Nc1ccc2nc3n(c(=O)c2c1)CCCC3,-43%
10,C/C(=N\NC(=O)c1ccc(F)cc1)c1ccccn1,8.97%
11,Cc1cccc(C)c1OCC(=O)NNC(=O)c1ccoc1C,1.26%
12,CC1=C[C@@H]2c3cccc4[nH]cc(c34)C[C@H]2N(C)C1,5.33%
13,CCOP(=O)(OCC)C(NC(=O)CC(C)C)C(Cl)(Cl)Cl (stereo not drawn),7.72%
14,Cc1ccc(N2C(=O)C(Cl)=C(N3CCCCCC3)C2=O)c(C)c1,17%
15,O=C(c1cccc(Cl)c1)N1CCC(N2CCC(C(=O)N3CCCC3)CC2)CC1,-49.1%
16,CC1CCN(C(=O)N[C@@H](Cc2ccccc2)C(=O)O)CC1,13.2%
17,O=C(CSc1nnc(-c2ccc(S(=O)(=O)N3CCCC3)cc2)n1CC1CCCO1)NC1CC1 (stereo not drawn),-9.73%
18,O=C(O)CSc1ccc(NC(=O)Nc2ccccc2F)cc1,23%
19,COc1ccc(N2CCN(C(=O)CN(C3CCCCC3)S(C)(=O)=O)CC2)cc1,-10.1%
20,Cc1ccc(S(=O)(=O)c2nc(S(C)(=O)=O)sc2N2CCCCC2C)cc1 (stereo not drawn),-15.7%
21,CN(C(=O)c1ccccc1)c1nccnc1C#N,3.31%
22,O=C(CCS(=O)(=O)c1ccc(Br)cc1)Nc1ccc(Cl)cc1F,11.5%

row,Structure (SMILES),"hERG current change (%, negative = inhibition) at 10uM"
1,C/C(=N\NC(=O)c1ccoc1C)c1ccccc1,3.88%
2,CN(CCNC(=O)CN1CCN(Cc2ccccc2Cl)C1=O)Cc1ccccc1,-30.4%
3,O=C(c1noc2c1CCCCC2)N1CCOCC1,10.3%
4,Cn1c(N)c(C(=O)COC(=O)c2ccccc2C(=O)c2ccccc2)c(=O)n(C)c1=O,-12.4%
5,CC(C)(C)C(=O)CSc1nnc(-c2cccs2)n1CC1CCCO1 (stereo not drawn),-12.4%
6,NC(=O)CSc1nnc2n(-c3ccccc3)c(=O)c3c4c(sc3n12)CCCCC4,-1.99%
7,Cc1ccc(-n2nnnc2SCC(=O)Nc2cc(C)on2)c(C)c1,3.7%
8,CCOCCCNC(=O)C(c1ccc(Cl)cc1)N1CCN(c2ccccc2)CC1 (stereo not drawn),7.17%
9,O=C(OCc1cc2ccccc2[nH]c1=O)c1ccc([N+](=O)[O-])cc1,9.23%
10,CCOc1ccccc1CN1CCN(CC2=Cc3cc(OC)ccc3OC2)CC1CCO (stereo not drawn),-83.3%
11,COc1ccccc1NC(=O)CN1CCC(c2nc3ccc(C)cc3[nH]2)CC1,-57.7%
12,O=C(NNC(=O)c1cccs1)c1ccc(Br)cc1,12.1%
13,O=C1C(Br)=Cc2cccc3cccc1c23,14.8%
14,COc1ccc(N2CCN(C(=O)CN(C)S(=O)(=O)c3cc(C)ccc3OC)CC2)cc1,-6.91%
15,Cc1cccc(OCC(=O)N2CCN(C(=O)CCC3CCCC3)CC2)c1,-37.3%
16,CCN(CC)S(=O)(=O)c1cccc(C(=O)N/N=C2\CC(=O)CC(C)(C)C2)c1,20.6%
17,COc1ccc(N2CCN(C(=O)CCc3nc(-c4ccc(C)cc4)no3)CC2)cc1,-14.1%
18,O=C(NC1CCCC1)C(c1ccncc1)N(C(=O)c1ccco1)c1ccc(F)c(Cl)c1 (stereo not drawn),-15.2%
19,Clc1ccccc1Cn1nnc2c(N3CCOCC3)nc(C3CC3)nc21,8.5%
20,COc1ccc(-c2nc(N)ncc2-c2csc(C)n2)c(O)c1OC,-1.69%
21,COc1ccccc1/C=C1/C(=O)N(c2ccc([N+](=O)[O-])cc2)N=C1C,12.7%
22,Cc1ccc(C(C)C)c(OCC(O)CNC2CCCC2)c1.Cl (stereo not drawn),-51.9%

row,Structure (SMILES),"hERG current change (%, negative = inhibition) at 10uM"
1,CN(Cc1cccc2cnccc12)C(=O)CCc1nnc(CCc2ccccc2)o1,-44.7%
2,O=C(CCCn1c(=O)c2ccccc2n(CC(=O)NCc2ccco2)c1=O)NCc1ccco1,1.19%
3,COc1cccc(Nc2nnc(SCn3nnc4ccccc4c3=O)s2)c1,7.88%
4,COc1ccc(CCNC(=O)CSC(=O)c2ccccc2)cc1OC,13.9%
5,COCCNC(=O)Cn1nc(-c2ccccc2OC)ccc1=O,15.9%
6,COc1ccc(OC)c(C2C(C(C)=O)=C(O)C(=O)N2CCc2ccc(OC)c(OC)c2)c1 (stereo not drawn),-5.15%
7,CC(Nc1nc(N2CCNCC2)nc2ccccc12)c1ccccc1 (stereo not drawn),-66.2%
8,Cc1cc(C)nc(/N=C(/NC(=O)Nc2cccc(Cl)c2)Nc2ccccc2)n1,17.8%
9,Cn1c(SCC(=O)N2CCCCC2)nc2c([nH]c3ccccc32)c1=O,-2.25%
10,Cc1ccc(-c2ccc(/C=C(\C#N)C(N)=S)n2C)cc1,14%
11,COc1cccc(/C=C/C(=O)OCCN2C(=O)c3ccccc3C2=O)c1,14.2%
12,Cc1ccc(CNS(=O)(=O)c2ccc3c(c2)n(C)c(=O)n3C)cc1,8.02%
13,CN(CC(=O)Nc1ccccc1C(=O)N1CCCC1)S(=O)(=O)c1ccc(Cl)cc1,-22.8%
14,NS(=O)(=O)c1ccc(CCNC(=O)c2ccc(Cl)cc2[N+](=O)[O-])cc1,16.7%
15,COc1cccc(NC(=O)N2CCCC2C(=O)NC2CCCCC2)c1 (stereo not drawn),6.4%
16,O=C(c1ccco1)N1CCN(Cc2cc(=O)c(OCc3ccccc3F)co2)CC1,-30.4%
17,CC(C)CN1CCN(Cc2cnc(N3CCOCC3)s2)CC1CCO (stereo not drawn),-4.34%
18,CN(C)C(=O)c1ccc(NC(=O)COC(=O)c2cc3c(s2)CCCCC3)cc1,-14.5%
19,CCOC(=O)c1ccc(NC(=S)Nc2ccccc2)cc1,-4.5%
20,O=C(c1cc(-c2ccc(Cl)cc2)nc2ccccc12)N1CCC1,-59.7%
21,CSc1ncccc1C(=O)NCC(=O)Nc1ccc(F)c(F)c1,15.7%
22,COc1ccccc1-c1csc(Cc2nnc3n2CCCCC3)n1,-15.2%

row,Structure (SMILES),"hERG current change (%, negative = inhibition) at 10uM"
1,CCOc1ccc2ccccc2c1C(=O)NCC(c1ccc(N(C)C)cc1)N(C)C (stereo not drawn),-27.1%
2,Cc1cccc(OCC(=O)Nc2ccc(S(=O)(=O)N3CCN(C)CC3)cc2)c1,-9.66%
3,COC(=O)c1cc2ccsc2n1Cc1cccc(F)c1,-0.987%
4,C/C(=N\OCC(=O)OCC(=O)Nc1cc(S(C)(=O)=O)ccc1Cl)c1ccc2c(c1)OCO2,-2.73%
5,Cc1cc2n(n1)C(c1ccccc1)CC(c1ccc(Br)cc1)=N2 (stereo not drawn),-1.85%
6,NC(=O)CC(NC(=O)c1ccccc1)c1ccc(NC2CCC2)c([N+](=O)[O-])c1 (stereo not drawn),-38.7%
7,CCOC(=O)c1ccc(N=C(C)c2c(O)[nH]c(=O)[nH]c2=O)cc1,10.8%
8,CCOC(=O)N1CCN(C(=O)c2ccc3c(c2)N(Cc2cc(C)ccc2C)C(=O)c2ccccc2S3=O)CC1 (stereo not drawn),-4.78%
9,Cc1cc(C(=O)OCC(=O)NCc2ccc(Cl)cc2Cl)c(C)o1,9.75%
10,Cc1ccc(-c2noc(C3CCCN(C(=O)c4c(F)cccc4F)C3)n2)cc1 (stereo not drawn),-27.4%
11,NC(=O)[C@H]1CC2(CC(c3cccc(NC(=O)COc4ccc(Cl)cc4)c3)=NO2)CN1C(=O)c1ccccc1C(=O)c1ccccc1 (stereo partly drawn),0.343%
12,Cc1cc(C)nc(N/N=C/c2ccncc2)n1,25.4%
13,Cc1ccc(C2C(=O)N(C3CCCC3)CC(=O)N2CC2COc3ccccc3O2)cc1 (stereo not drawn),-12%
14,O=C(Nc1sc2c(c1C(=O)NCc1ccco1)CCCC2)c1ccc2c(c1)OCO2,6.34%
15,CNc1nc(N2CCc3ccccc32)ncc1F,-1.71%
16,CCOC(=O)N1CCC(NS(=O)(=O)c2ccccc2)CC1,12.2%
17,Cc1onc(-c2ccccc2Cl)c1C(=O)Nc1nc2c(s1)CCCC2,10.4%
18,O=C(NCc1ccco1)c1cc2cc(Br)ccc2o1,1.76%
19,Cc1cccc(C)c1NC(=S)NNc1ncc(C(F)(F)F)cc1Cl,11.1%
20,COC(=O)c1ccccc1NC(=O)C1CC(=O)N(c2ccc(C)cc2)C1 (stereo not drawn),-11.4%
21,Cc1ccccc1OCC(=O)NC(=S)Nc1ccc2c3c(cccc13)CC2,26.7%
